Source: ChEMBL document CHEMBL4888484, “Replenishing the malaria drug discovery pipeline: Screening and hit evaluation of the MMV Hit Generation Library 1 (HGL1) against asexual blood stage Plasmodium falciparum ,using a nano luciferase reporter read-out” (2022)
Screen size: about 150,000 compounds; about 540 (0.36%) showed an effect of 50% or more. The list shows a part of the results.

system: Plasmodium falciparum; assay: Primary screen in NF54 nanoGlo assay, in single point, at 2uM, 72h; a lower Z score goes with more inhibition; type: functional, Erythrocyte; conditions: timepoint 72 hour

Compound | % Inhibition | Z score
CC(C)C(=O)N1CCN(c2ccc(NC(=O)c3ccc(F)cc3F)cn2)CC1 | -12% | 1.07
O=C(NCCc1cccnc1)c1cc(-c2cccc(Cl)c2)[nH]n1 | 29% | -3.29
CCOc1ccc(-c2cc3c(N4CCC(C(=O)NCc5ccc(OC)c(OC)c5)CC4)nccn3n2)cc1 | 8% | -0.79
Cc1oc(C(=O)N2CCCCC2C2CCCN2C(=O)OC(C)(C)C)cc1S(=O)(=O)N1CCCC1 (stereo unspecified) | -1% | 0.08
Cc1nc2c([nH]1)CN(C(=O)NCCc1nc3c(s1)CCC3)CC2 | -11% | 1.2
CCC1C(CO)CCN1C(=O)[C@@H]1C[C@H](C)CC(=O)N1 (stereo partly specified) | -3% | 0.52
CCC(C)N(C(=O)c1cc(C(C)=O)c(C)nc1C)C(C)CC (stereo unspecified) | 4% | -0.68
COc1ccc([C@H](C)NC(=O)C(=O)Nc2cc(C)on2)c(OC)c1 | 4% | -0.5
COCc1nc(C)cc(N[C@H]2CCCC[C@@H]2OC)n1 | 16% | -1.99
CCOC(=O)CCn1cnc(-c2ccccc2)c1-c1cccc2nonc12 | -7% | 1.38
CN1C(=O)C2(CCN(C(=O)c3cnccn3)CC2)c2ccccc21 | 4% | -0.77
CCCN1CCN(c2ncc3c(n2)CCN(Cc2ccc4c(c2)OCCO4)C3)CC1 | 11% | -1.56
C[C@]1(O)CCN(C(=O)C(F)(F)c2ccccn2)C1 | -10% | 1.46
CN(C)c1cncc(O[C@H]2CCN(C(=O)NCc3ccc4c(c3)OCO4)C2)n1 | -5% | 0.54
O=C(Cc1cnn(-c2ccccc2)c1)N[C@H]1CCN(c2ncccc2Cl)C1 | -4% | 0.42
COc1ccnc(N(C)Cc2ccc(N)nc2)n1 | 2% | -0.35
COc1nc(N2CCN(c3cccc(C(F)(F)F)c3)CC2)ncc1C(=O)NCCCN1CCOCC1 | -17% | 1.61
Cc1coc(-c2cc(NCc3c[nH]nc3-c3cccnc3)ccc2C)n1 | 0% | -0.04
CCOC(=O)c1cn(CC)c2cc(NC3CCCCC3)c(F)cc2c1=O | 67% | -12.03
Cc1ccc(CC(=O)NCC(C)(C)C(N)=O)s1 | -3% | 0.55
Cc1cc(-c2nc3ncccc3o2)ccc1NC(=O)c1cccc2c(Br)cccc12 | -12% | 1.35
COCCn1c(Cc2nc(C)cs2)nnc1N1CC2(CCC2)OC[C@@H]1C | 2% | -0.35
COc1ccc2c(c1)CCc1c(C(=O)N3CCN(c4ccccn4)CC3)n[nH]c1-2 | -1% | 0.15
CN(C)c1nc(N)nc(CN2CCOc3ccc(F)cc32)n1 | 39% | -5.3
Cc1c(C(=O)N2CCC(CCN3CCCC[C@@H]3C)CC2)nnn1-c1cccc2cccnc12 | -2% | 0.27
CC1CCC(N(C(=O)c2cc(C3CC3)[nH]n2)C2CC2)CC1 (stereo unspecified) | -5% | 0.76
O=C(N[C@H](c1ccccc1)c1nc2ccccc2[nH]1)c1cc(=O)[nH]c2ccccc12 | -13% | 1.59

Compound | % Inhibition | Z score
CCC(CC)(CNC(=O)OC(C)(C)C)NC(=O)Cn1cc(C)cn1 | -16% | 2.49
O=C(c1cn(CCc2ccccc2)nn1)N1CCC[C@H](OCc2ccccc2)C1 | -1% | 0.09
c1cncc(-c2cccc(CNC3CC3)c2)c1 | -1% | 0.15
Cn1cncc1CCC(=O)Nc1ccnn1[C@H]1CCCc2ccccc21 | 5% | -0.57
CCOc1ccc(C(=O)Nc2nc3cc4c(cc3s2)OCCO4)cn1 | -13% | 1.36
O=c1cc(-c2ccccc2)nc2n1CCCN2 | -5% | 0.71
O=C(Cc1ccccc1)N1N=C2CCCCC2C1(O)C(F)(F)F (stereo unspecified) | 0% | -0.07
O=S(=O)(Cc1ccc(C(F)F)cc1)Cc1nc(C2CC2)n[nH]1 | -19% | 2.24
COc1cnc(N(C)C(=O)C2CCC(F)(F)CC2)nc1 | -6% | 0.65
O=C(C[C@H]1CCCN1C(=O)c1cncc(O)c1)c1ccc(F)cc1 | 2% | -0.22
COc1cc(Cl)c(CN2CCC[C@H](CCC(=O)N3CCOCC3)C2)cc1OC | -3% | 0.46
CN(CCC(=O)N1C[C@@H]2CC[C@H]1CN(c1ncccn1)C2)S(C)(=O)=O | 9% | -1.26
Cc1cccc(Cn2nc(C)cc2NC(=O)Cc2nonc2C)c1 | -4% | 0.84
O=C(Nc1cc(C2CC2)nn1[C@H]1CCS(=O)(=O)C1)c1cscn1 | 9% | -1.28
Cn1cccc(C(=O)N2CCN(C(=O)c3cc4n(n3)CCCC4)CC2)c1=O | -7% | 1.02
Cc1ccc([C@H](C)NC(=O)c2ncccc2C)nc1 | 3% | -0.47
O=C(Cn1c([C@H](Cc2ccccc2)NC(=O)c2ccccc2)nc2ccccc21)c1ccccc1 | -5% | 0.56
Cc1c(CC(=O)N(CC2CCC2)c2ccccc2)cnn1C | -11% | 1.15
O=C(OCc1ccccn1)C1CCN(S(=O)(=O)c2ccc(Cl)cc2)CC1 | -11% | 1.4
Cc1cc(C(=O)N[C@@H]2COC(C)(C)C2)n(C2CCOCC2)n1 | 3% | -0.34
CCc1nc(CN2C(=O)COc3ccc(S(=O)(=O)N4CCC(Cc5ccccc5)CC4)cc32)no1 | 2% | -0.4
O=S(=O)(Nc1cnc(N2CCCC2)nc1)c1ccccc1Cl | -10% | 1.84
CNc1ccnc(N2CC[C@@]3(CCCN(Cc4ccc(F)c(F)c4)C3)C2)n1 | 1% | -0.2
CC(C)CC(=O)N1CCC[C@H](c2nc(-c3ccccc3)c[nH]2)C1 | -4% | 0.67
CCCc1nc(CNc2ncnc3sc(C(=O)O)c(C)c23)cs1 | -4% | 0.66
CN(Cc1cnc(NCc2ccccc2)nc1)[C@@H]1CCCC[C@@H]1O | 14% | -1.96
